Results published in US20240216557A1, “RADIOLIGAND BINDING TO ANTI-DLL3 ANTIBODIES FOR PRETARGETED PET IMAGING AND THERAPEUTIC USES THEREOF” (Memorial Sloan-Kettering Cancer Center, priority 2021, published 2024).

T1: Histidine-tagged DLL3 antigen (DLL3-His) (Homo sapiens, UniProt Q9NYJ7)
T1 construct: corresponding to amino acids Ala27-Ala479 with a C-terminal 6×His tag; made in house; host or cells: HEK293T cells
T1 sequence (Q9NYJ7 27-479): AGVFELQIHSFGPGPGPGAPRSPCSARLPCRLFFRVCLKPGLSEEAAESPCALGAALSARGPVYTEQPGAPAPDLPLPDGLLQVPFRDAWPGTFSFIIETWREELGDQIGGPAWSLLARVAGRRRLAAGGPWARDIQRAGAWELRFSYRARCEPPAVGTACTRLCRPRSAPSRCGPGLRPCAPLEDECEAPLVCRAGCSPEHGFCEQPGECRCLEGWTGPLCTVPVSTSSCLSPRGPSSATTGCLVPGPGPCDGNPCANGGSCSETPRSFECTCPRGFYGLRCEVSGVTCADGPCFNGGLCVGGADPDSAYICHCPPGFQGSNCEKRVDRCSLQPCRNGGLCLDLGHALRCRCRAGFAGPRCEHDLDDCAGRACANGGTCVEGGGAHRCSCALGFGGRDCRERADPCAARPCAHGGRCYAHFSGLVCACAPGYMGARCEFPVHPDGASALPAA


Molecular target: T1, Histidine-tagged DLL3 antigen (DLL3-His)
Assay: Pairwise epitope binning on Carterra array SPR
Conditions: pairwise competition for binding to DLL3-His, antibodies immobilized on HC200M chip
Procedure: The panel of purified anti-DLL3 monoclonal antibodies and the reference monoclonal antibody were subjected to pairwise epitope binning on a Carterra® array surface plasmon resonance (SPR) assay platform (Carterra*Inc., Salt Lake City UT) where each monoclonal antibody was tested for the capture of Histidine-tagged DLL3 antigen (DLL3-His), and also for competing with every other antibody in the panel for the binding to DLL3-His. The antibodies were immobilized on a HC200M chip (ligand) through standard amine coupling techniques by the print array method. Then in each cycle antigen was injected across the entire array followed by a single antibody (analyte). At the end of each cycle the surface was regenerated to remove antigen and analyte before a new cycle started.

Row | Molecule | Epitope Bin
1 | G3: anti-DLL3 antibody, VH SEQ ID NO: 52, VL SEQ ID NO: 53 (antibody, V domains shown) VH: QVQLQESGPGLVKPSETLFLTCTVSGGSISSYYWTWIRQPAGKGLEWIGRIYTSGSTNYNPSLKSRVTMSVDTSKNQFSLKLSSVTAADTAVYYCAREDWESWTFDIWGQGTMVTVSS VL: [no letters for about 100 residues]LSFGGGTKVEIK | 1
2 | L12: anti-DLL3 antibody, VH SEQ ID NO: 131, VL SEQ ID NO: 132 (antibody, V domains shown) VH: QVQLVQSGAEVKKPGASVKVSCKASGYTFTSYYMHWVRQAPGQGLEWMGIINPSGGSRSYAQKFQGRVTMTRDTSTSTVYMELSSLRSEDTAVYYCARQLELLGNAFDIWGQGTMVTVSS VL: [no letters for about 100 residues] | 4
3 | B16-v1: anti-DLL3 antibody, VH SEQ ID NO: 108, VL SEQ ID NO: 109 (antibody, V domains shown) VH: QVQLVQSGAEVKKPGASVKVSCKASGYTFTSYYMHWVRQAPGQGLEWMGIIDPSGGSTSYAQKFQGRVTMTRDTSTNTVYMDLSSLRSEDTAVYYCARQGRYVGSYLDYWGQGTLVTVSS VL: [no letters for about 100 residues]QGTKLEIK | 4
4 | C22: anti-DLL3 antibody, VH SEQ ID NO: 147, VL SEQ ID NO: 148 (antibody, V domains shown) VH: QVQLVQSGAEVKKPGASVKVSCKASGYTFTSYYMHWVRQAPGQGLEWMGIINPSGGSTSYAQKFQGRVTMTRDTSTSTVYMELSSLRSEDTAVYYCARVADIVGATFDYWGQGTLVTVSS VL: [no letters for about 100 residues]YTFGQGTKLEIK | 9
5 | J23: anti-DLL3 antibody, VH SEQ ID NO: 83, VL SEQ ID NO: 84 (antibody, V domains shown) VH: QVQLVQSGAEVKKPGASVKVSCKASGYTFTSYYMHWVRQAPGQGLEWMGIINYSGGSKSYAQKFQGRVTMTRDTSTSTVYMELSSLRSEDTGVYYCARQGRYSGSYLDYWGQGTLVTVSS VL: [no letters for about 100 residues]QGTKLEIK | 2
6 | D8: anti-DLL3 antibody, VH SEQ ID NO: 153, VL SEQ ID NO: 154 (antibody, V domains shown) VH: QVQLVQSGAEVKKPGASVKVSCKASGYTFTTYYMHWVRQAPGQGLEWMGIINPSGGSTSYAQKFQGRVTMTRDTSTSTVYMELSSLRSEDTAVYYCARQGHYIGNYLDYWGQGTLVTVSS VL: [no letters for about 100 residues]QGTKLEIK | 2
